For 30 compounds, activity change, negative = inhibition results are on record in PubChem BioAssay AID1745853 (National Center for Advancing Translational Sciences (NCATS), 2022).

Holding throughout (assay): Primary Screen for Target Class Profiling of Small Molecule Inhibitors of Methyltransferases
The target of experiment [1] is Glycine N-methyltransferase (Homo sapiens) (UniProt Q14749). The settings on record: purified enzyme, MTase-Glo SAH luminescence; measured here: GNMT inhibition; at 40 µM; stronger effect = lower value. In a few lines:
(§1)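 Each enzyme was reacted with SAM and its substrate, with compounds tested once at 40 uM; SAH formed was read by MTase-Glo luminescence.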

Experiment [2] has as its target Guanidinoacetate N-methyltransferase (Homo sapiens) (UniProt Q14353). The settings on record: purified enzyme, MTase-Glo SAH luminescence; measured here: GAMT inhibition; at 40 µM; stronger effect = lower value. In a few lines:
as §1

For experiment [3], the target named is Histamine N-methyltransferase (Homo sapiens) (UniProt P50135). The following applies: purified enzyme, MTase-Glo SAH luminescence; measured here: HNMT inhibition; at 40 µM; stronger effect = lower value. In a few lines:
as §1

The target in experiment [4] is Nicotinamide N-methyltransferase (Homo sapiens) (UniProt P40261). The settings on record: purified enzyme, MTase-Glo SAH luminescence; measured here: NNMT inhibition; at 40 µM; stronger effect = lower value. In a few lines:
as §1

Experiment [5] has as its target Phenylethanolamine N-methyltransferase (Homo sapiens) (UniProt P11086). The following applies: purified enzyme, MTase-Glo SAH luminescence; measured here: PNMT inhibition; at 40 µM; stronger effect = lower value. In a few lines:
as §1

Values joined by “and” are separate entries in the source; they are usually repeats but may differ in a detail not shown here. Equal entries are not always repeated. Some of the results follow. Further columns of the screen follow, without active or inactive calls.
On the % scale 0 is the no-effect control and ±100 the full control effect.

`Cc1nc(CN2CCOc3cc([S+](=O)([O-])Nc4ccccc4)ccc3C2)cs1`: the activity change, negative = inhibition in experiment [1] is -5.99%; in experiment [2], -8.94%; in experiment [3], -3.76%; in experiment [4], -14%; in experiment [5], -8.01%.

With `CSCC1OC(n2cnc3c(N)ncnc32)C(O)C1O` (stereo not drawn), the activity change, negative = inhibition in experiment [1] is -8.48%; in experiment [2], -20.8%; in experiment [3], -6.73%; in experiment [4], -24.7%; in experiment [5], -25.5%.

As to `CCCn1c(=O)c2ccccc2n2c(=O)n(CC(=O)c3cccc(OC)c3)nc12`, the activity change, negative = inhibition in experiment [1] is -5.61%; in experiment [2] it was 0.9%; in experiment [3], -0.543%; in experiment [4], -12.7%; in experiment [5], -4.11%.

Turning to `CCNC(=O)C1CC(F)(c2ccc(CN3CCCC3)c(F)c2)C1` (stereo not drawn), the activity change, negative = inhibition was -4.68% in experiment [1]; -6.1% in experiment [2]; 5.79% in experiment [3]; -17.6% in experiment [4]; 0.779% in experiment [5].

Regarding `CCCCC#Cc1nc(NC)c2ncn([C@@H]3O[C@H](CO)[C@@H](O)[C@H]3O)c2n1`, the activity change, negative = inhibition in experiment [1] is -19.5%; in experiment [2] it was 10.1%; in experiment [3], 1.68%; in experiment [4] it was -5.57%; in experiment [5] it was 3.28%.

For the compound `CCn1cc(CN(C)Cc2ccccc2)ccc1=O`, the activity change, negative = inhibition in experiment [1] is -7.36%; in experiment [2] it was -2.51%; in experiment [3], -1.46%; in experiment [4] it was -4.63%; in experiment [5], -11.3%.

With `Cc1noc(C)c1CN[C@@H]1CCC[C@@H](C(=O)N2CCN(C)CC2)CC(=O)N(C)C1`, the activity change, negative = inhibition in experiment [1] was -2.83%; in experiment [2], -8.88%; in experiment [3], -4.48%; in experiment [4], -13.5%; in experiment [5], -8.71%.

Turning to `CCCCNc1nc2c(S(=O)(=O)c3cc(C)ccc3C)nnn2c2ccccc12`, the activity change, negative = inhibition in experiment [1] was -2.99%; in experiment [2], 0%; in experiment [3] it was 4.69%; in experiment [4], -1.33%; in experiment [5], -1.82%.

In the case of `O=C(Cc1cccnc1)N1CCC2(CC1)CC(CCOc1ccc(F)cc1)CCO2` (stereo not drawn), the activity change, negative = inhibition in experiment [1] was -1.86%; in experiment [2], 0.262%; in experiment [3] it was 0.438%; in experiment [4], -3.33%; in experiment [5], 4.55%.

For `CC1(C)CCC[C@]2(C)C1CC=C(CO)[C@H]2CC/C(=C/CO)CO` (stereo partly drawn), the activity change, negative = inhibition in experiment [1] was 3.72%; in experiment [2], 7.17%; in experiment [3], 7.63%; in experiment [4], -10.1%; in experiment [5], 4.04%.

In the case of `CC(=O)NCC1CN(c2ccc(-c3ccc(CNCc4cn[nH]n4)cc3)c(F)c2)C(=O)O1` (stereo not drawn), the activity change, negative = inhibition in experiment [1] was -2%; in experiment [2], 4.05%; in experiment [3], 12%; in experiment [4], -9.93%; in experiment [5], 3.42%.

For `Cc1ccc(CN2CCn3c(nnc3[C@@H]3C[C@@H](O)CN3Cc3cccnc3)C2)s1`, the activity change, negative = inhibition in experiment [1] was -9.09%; in experiment [2], -14.8%; in experiment [3], -5.45%; in experiment [4], -9.69%; in experiment [5], -3.64%.

As to `Cc1cccc(CN2C(=O)c3ccccc3CC2(C)C(=O)NCc2ccccc2C)c1` (stereo not drawn), the activity change, negative = inhibition in experiment [1] was 11.8%; in experiment [2], 0%; in experiment [3], 12%; in experiment [4], -0.369%; in experiment [5] it was 5.55%.

On to `Cc1ccccc1CCN1C(=O)c2ccc(-c3ccco3)n2CC1(C)C(=O)NC1CCCCC1` (stereo not drawn), for which the activity change, negative = inhibition in experiment [1] was -9.47%; in experiment [2] it was 0.606%; in experiment [3] it was -4.46%; in experiment [4], -10.2%; in experiment [5], -1.47%.

In the case of `O=P(O)(O)C(O)(Cc1cccnc1)P(=O)(O)O`, the activity change, negative = inhibition in experiment [1] was -0.344% and 4.61%; in experiment [2], 4.35% and -11.3%; in experiment [3], 10.1% and -3.23%; in experiment [4] it was -9.89% and -18.6%; in experiment [5], 5.44% and -13.2%.

On to `COc1ccccc1CCNC(=O)c1cc2n(n1)CC(C)(C(=O)NCCC(C)C)N(C)C2=O` (stereo not drawn), for which the activity change, negative = inhibition in experiment [1] worked out at 5.61%; in experiment [2], 1.44%; in experiment [3], 3.66%; in experiment [4] it was 6.11%; in experiment [5] it was 2.98%.

Turning to `CCCn1c(=O)c2cc(Cl)ccc2n2c(=O)n(CC(=O)Nc3cc(OC)cc(OC)c3)nc12`, the activity change, negative = inhibition in experiment [1] was determined as 1.12%; in experiment [2], 3.64%; in experiment [3], 10.2%; in experiment [4], 1.32%; in experiment [5] it was 1.66%.

As to `CCOc1nc2c(N)ncnc2n1CC`, the activity change, negative = inhibition was -7.26% in experiment [1]; -7.8% in experiment [2]; 6.7% in experiment [3]; -28.8% in experiment [4]; -2.56% in experiment [5].

Consider `CCN1/C(=C/C(C)=O)Sc2ccc(OC(C)=O)cc21`, for which the activity change, negative = inhibition in experiment [2] is 2.45%; in experiment [4] it was -22.9%; in experiment [5] it was 1.79%.

Regarding `CC/C=C\CC1C(=O)C=CC1(CCCCC1CCC(=O)O1)OC(C)=O` (stereo not drawn), the activity change, negative = inhibition in experiment [1] was 0%; in experiment [2] it was -2.54%; in experiment [3], 0.814%; in experiment [4], -17.1%; in experiment [5], 0.457%.

In the case of `Cc1cnc(CCNC(=O)Nc2ccc3c(c2)OCCO3)n1C1CCC1`, the activity change, negative = inhibition in experiment [1] was -5.19%; in experiment [2], -3.26%; in experiment [3], -73.2%; in experiment [4], -11%; in experiment [5] it was -3.62%.

Regarding `O=C([C@@H]1Cc2nc[nH]c2CN1Cc1ccc(C(F)(F)F)cc1)N1CCOCC1`, the activity change, negative = inhibition is -3.44% in experiment [1]; -8.16% in experiment [2]; -0.677% in experiment [3]; -12.5% in experiment [4]; -10.9% in experiment [5].

With `CC1(C(=O)NC2CCCCC2)Cn2c(c(-n3cccc3)c3ccccc32)C(=O)N1Cc1cccs1` (stereo not drawn), the activity change, negative = inhibition in experiment [1] was -2.94%; in experiment [2], 3.07%; in experiment [3], 0.432%; in experiment [4], -10.2%; in experiment [5], -1.56%.

On to `O=C(Nc1ccc2[nH]ncc2c1)C1CCC1`, for which the activity change, negative = inhibition was -4.87% and -2.32% in experiment [1]; 2.39% and -9.22% in experiment [2]; -0.439% and 4.67% in experiment [3]; -2.47% and -13.7% in experiment [4]; 8.45% and 0.779% in experiment [5].

With `Cc1cccc(-c2nnn3c2nc(NCc2ccc4c(c2)OCO4)c2ccccc23)c1`, the activity change, negative = inhibition was 5.02% in experiment [1]; 0.105% in experiment [2]; 2.52% in experiment [3]; -0.867% in experiment [4]; -1.39% in experiment [5].

On to `CC(C)CCN1C(=O)c2ccc(-c3ccco3)n2CC1(C)C(=O)NC1CCCCCCC1` (stereo not drawn), for which the activity change, negative = inhibition in experiment [1] was -10.4%; in experiment [2] it was 0.375%; in experiment [3], -6.17%; in experiment [4], -10.6%; in experiment [5], -6.78%.

With `CCN(CC)CCNC(=O)CCc1nnc2n(Cc3ccc(Cl)cc3)c(=O)c3ccccc3n12`, the activity change, negative = inhibition in experiment [1] was -5.61%; in experiment [2] it was 4.47%; in experiment [3], -50.5%; in experiment [4], -2.81%; in experiment [5], -1.69%.

With `Cn1cc(CN2CC3(COCC(=O)N(Cc4cccc(OC(F)(F)F)c4)C3)C2)cn1`, the activity change, negative = inhibition in experiment [1] is -6.29%; in experiment [2], -10.4%; in experiment [3], -6.02%; in experiment [4], -16.4%; in experiment [5], 3.67%.

Take `CC(C)CNC(=O)c1ccc2c(=O)n(C)c3nn(CC(=O)Nc4ccc(C(C)C)cc4)c(=O)n3c2c1`: the activity change, negative = inhibition is 4.08% in experiment [1]; 0.177% in experiment [2]; 4.52% in experiment [3]; -1.99% in experiment [4]; 5.86% in experiment [5].

As for `CCCN1C(=O)c2c(C(=O)NCc3ccc(C)cc3)ncn2CC1(C)C(=O)NCc1ccc(C)cc1` (stereo not drawn), the activity change, negative = inhibition amounted to 1.52% in experiment [1]; 0% in experiment [2]; 7.65% in experiment [3]; 4.29% in experiment [4]; 5.7% in experiment [5].
